{"source": "PubChem BioAssay (NCATS)", "note": "The list shows a part of the results. These are further read-outs of the screen, such as a control signal, another cell line or another target. No call is given for them. The list favours compounds with an active or inconclusive main result. Potencies come from curve fits of mixed quality, noted in brackets. Tags describe the fitted curve by direction and shape.", "data": [{"assay": "qHTS Assay for Lipid Storage Modulators (AID 1519)", "details": "Drosophila S3 cells, BODIPY lipid droplet/cell ratio, laser cytometry; measured here: lipid (BODIPY) channel AC50; cells loaded with oleic acid", "outline": "(§1)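 Cells seeded at 5,000 per well were treated with compounds over a concentration series and loaded with oleic acid (400 uM, as added). Lipid droplet fluorescence (488 nm excitation, 500-530 nm channel) was read by laser-scanning cytometry and normalized to 20 uM Triacsin C.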", "values": [{"smiles": "C[C@@H]([C@H](O)c1ccc(O)cc1)N1CCC(Cc2ccccc2)CC1", "AC50": "31.6 µM [rising, partial curve, poor fit]"}, {"smiles": "CC(=O)NCCNc1nc(-c2cccc(C#N)c2)nc2ccccc12", "AC50": "0.355 µM [rising, full curve, poor fit]"}, {"smiles": "CN(C)Cc1ccccc1-c1ccc2ncnc(NC3CCNCC3)c2c1", "AC50": "39.8 µM [rising, single point]"}, {"smiles": "COc1cccc(CNc2ccc3nc(-c4ccc(N)cc4)c(OC)n3n2)c1", "AC50": "0.891 µM [rising, full curve]"}, {"smiles": "CN(Cc1ccco1)c1ccnc(-c2cccc(C#N)c2)n1", "AC50": "5.62 µM [rising, partial curve]"}, {"smiles": "CN(C)c1ncnc2ccc(-c3ccccc3C(F)(F)F)cc12", "AC50": "0.0316 µM [rising, full curve, poor fit]"}, {"smiles": "CNc1ncnc2c1ncn2[C@H]1C[C@H](OP(=O)(O)O)[C@H](COP(=O)(O)O)O1", "AC50": "35.5 µM [rising, single point]"}, {"smiles": "COc1ccc(CNc2ncncc2-c2ccc(N(C)C)cc2)c(OC)c1", "AC50": "1.12 µM [rising, full curve, poor fit]"}, {"smiles": "COc1ncc2nc(-c3cc(F)cc(F)c3)c(=O)n(C[C@H]3CCCO3)c2n1", "AC50": "0.0562 µM [rising, full curve, poor fit]"}, {"smiles": "COCCn1c(=O)c(-c2ccc(Cl)cc2)nc2cncnc21", "AC50": "0.112 µM [rising, full curve]"}, {"smiles": "CCNc1ncc2nc(-c3cccc(C#N)c3)c(=O)n(Cc3cccc(OC)c3)c2n1", "AC50": "2 µM [rising, full curve]"}, {"smiles": "CS(=O)(=O)Nc1cccc(-c2nccc(Nc3ccc(F)cc3)n2)c1", "AC50": "0.708 µM [rising, full curve, poor fit]"}, {"smiles": "Cc1ccccc1-c1nccc(Nc2ccc(F)cc2)n1", "AC50": "5.01 µM [rising, partial curve]"}, {"smiles": "N#Cc1cccc(-c2nccc(NCc3ccccc3)n2)c1", "AC50": "2.51 µM [rising, partial curve]"}, {"smiles": "CC#C[C@]1(O)CC[C@H]2[C@@H]3CCC4=CC(=O)CCC4=C3[C@H](c3ccc(N(C)C)cc3)C[C@@]21C", "AC50": "11.2 µM [rising, partial curve]"}, {"smiles": "COc1cc2oc(-c3ccccc3)cc(=O)c2cc1OC", "AC50": "0.501 µM [rising, full curve]"}, {"smiles": "CN(C)c1ncc2nc(-c3ccc(Cl)cc3)c(=O)n(C[C@H]3CCCO3)c2n1", "AC50": "1.58 µM [rising, full curve]"}, {"smiles": "N#Cc1cccc(-c2nc(NCCN3CCOCC3)c3ccccc3n2)c1", "AC50": "0.708 µM [rising, full curve]"}, {"smiles": "CNc1ncncc1-c1ccccc1CN(C)C", "AC50": "1.58 µM [rising, full curve, poor fit]"}, {"smiles": "O=c1cnc2cnc(Oc3cccc(Cl)c3)nc2n1CCc1ccccc1", "AC50": "5.62 µM [rising, full curve, poor fit]"}, {"smiles": "COc1ncc2nc(CCc3ccccc3)c(=O)n(CCc3ccccc3)c2n1", "AC50": "0.112 µM [rising, full curve]"}, {"smiles": "COc1ccc(Oc2ncc3nc(C)c(=O)n(Cc4cccs4)c3n2)cc1", "AC50": "0.891 µM [rising, partial curve]"}, {"smiles": "CN1CCc2cccc3c2[C@H]1Cc1ccc(O)c(O)c1-3", "AC50": "14.1 µM [rising, partial curve, poor fit]"}, {"smiles": "N#Cc1cccc(-c2nccc(NCc3cccs3)n2)c1", "AC50": "0.891 µM [rising, full curve, poor fit]"}, {"smiles": "COc1cc(C)c2c(=O)cc(-c3ccccc3)oc2c1", "AC50": "2.51 µM [rising, full curve, poor fit]"}, {"smiles": "COc1cc(C(O)C(=O)O)ccc1O", "note": "(centres undefined)", "AC50": "44.7 µM [rising, single point]"}, {"smiles": "COc1ccc(-c2nc3cnc(N(C)C)nc3n(-c3ccccc3)c2=O)cc1", "AC50": "0.224 µM [rising, partial curve]"}, {"smiles": "COCCn1c(=O)c(CCc2ccccc2)nc2cnc(Oc3ccccc3)nc21", "AC50": "2.24 µM [rising, full curve, poor fit]"}, {"smiles": "Cc1ccc2c(c1)C(=O)[C@@]1(O)CCN(c3ccccc3)C1=N2", "AC50": "12.6 µM [rising, partial curve, poor fit]"}]}, {"assay": "qHTS Assay for Lipid Storage Modulators (AID 1519)", "details": "Drosophila S3 cells, BODIPY lipid droplet/cell ratio, laser cytometry; measured here: lipid channel max response; cells loaded with oleic acid", "outline": "as §1", "units": {"max response": "%"}, "values": [{"smiles": "O=S(=O)(c1ccccc1)N1CCC2(CCCN(Cc3ccccc3)C2)CC1", "max response": 10.6}, {"smiles": "CN1CCN(c2ncnc3ccc(-c4cccc(C#N)c4)cc23)CC1", "max response": 18.7}, {"smiles": "O=C(c1ccccc1)c1ccc2n1CCC2C(=O)O", "note": "(centres undefined)", "max response": 66.2}, {"smiles": "Cc1noc(C)c1-c1nc(Nc2ccc(F)cc2)c2ccccc2n1", "max response": 42.4}, {"smiles": "COc1ccc(CNc2nc(-c3cccc(C#N)c3)nc3ccccc23)c(OC)c1", "max response": 35.5}, {"smiles": "COc1cccc(Cn2c(=O)c(CCc3ccccc3)nc3cnc(N4CCN(C)CC4)nc32)c1", "max response": 23.5}, {"smiles": "Cc1cccc(/C=C\\c2ccccc2)n1", "max response": 115}, {"smiles": "O=c1[nH]c2cc([N+](=O)[O-])c([N+](=O)[O-])cc2[nH]c1=O", "max response": 43}, {"smiles": "CCNc1ncc2nc(C)c(=O)n(Cc3cccc(OC)c3)c2n1", "max response": 27.8}, {"smiles": "CCNc1ncc2nc(-c3ccc(Cl)cc3)c(=O)n(C)c2n1", "max response": 45.4}, {"smiles": "O=c1cc(-c2ccccc2)oc2cccc(O)c12", "max response": 142}, {"smiles": "C[C@@H]([C@H](O)c1ccc(O)cc1)N1CCC(Cc2ccccc2)CC1", "max response": 53.1}, {"smiles": "CC(=O)NCCNc1nc(-c2cccc(C#N)c2)nc2ccccc12", "max response": 37.4}, {"smiles": "CN(C)Cc1ccccc1-c1ccc2ncnc(NC3CCNCC3)c2c1", "max response": 44.5}, {"smiles": "COc1cccc(CNc2ccc3nc(-c4ccc(N)cc4)c(OC)n3n2)c1", "max response": 133}, {"smiles": "CN(Cc1ccco1)c1ccnc(-c2cccc(C#N)c2)n1", "max response": 38.4}, {"smiles": "CN(C)c1ncnc2ccc(-c3ccccc3C(F)(F)F)cc12", "max response": 14.1}, {"smiles": "CNc1ncnc2c1ncn2[C@H]1C[C@H](OP(=O)(O)O)[C@H](COP(=O)(O)O)O1", "max response": 48.1}, {"smiles": "COc1ccc(CNc2ncncc2-c2ccc(N(C)C)cc2)c(OC)c1", "max response": 27.6}, {"smiles": "COc1ncc2nc(-c3cc(F)cc(F)c3)c(=O)n(C[C@H]3CCCO3)c2n1", "max response": 33.2}, {"smiles": "COCCn1c(=O)c(-c2ccc(Cl)cc2)nc2cncnc21", "max response": 44.6}, {"smiles": "CCNc1ncc2nc(-c3cccc(C#N)c3)c(=O)n(Cc3cccc(OC)c3)c2n1", "max response": 37.2}, {"smiles": "CS(=O)(=O)Nc1cccc(-c2nccc(Nc3ccc(F)cc3)n2)c1", "max response": -6.01}, {"smiles": "Cc1ccccc1-c1nccc(Nc2ccc(F)cc2)n1", "max response": 10.9}, {"smiles": "N#Cc1cccc(-c2nccc(NCc3ccccc3)n2)c1", "max response": 24.7}, {"smiles": "CC#C[C@]1(O)CC[C@H]2[C@@H]3CCC4=CC(=O)CCC4=C3[C@H](c3ccc(N(C)C)cc3)C[C@@]21C", "max response": 122}, {"smiles": "COc1cc2oc(-c3ccccc3)cc(=O)c2cc1OC", "max response": 109}, {"smiles": "CN(C)c1ncc2nc(-c3ccc(Cl)cc3)c(=O)n(C[C@H]3CCCO3)c2n1", "max response": 46.8}, {"smiles": "N#Cc1cccc(-c2nc(NCCN3CCOCC3)c3ccccc3n2)c1", "max response": 8.81}, {"smiles": "CNc1ncncc1-c1ccccc1CN(C)C", "max response": 43.8}, {"smiles": "O=c1cnc2cnc(Oc3cccc(Cl)c3)nc2n1CCc1ccccc1", "max response": 35.2}, {"smiles": "COc1ncc2nc(CCc3ccccc3)c(=O)n(CCc3ccccc3)c2n1", "max response": 11.8}, {"smiles": "COc1ccc(Oc2ncc3nc(C)c(=O)n(Cc4cccs4)c3n2)cc1", "max response": 8.39}, {"smiles": "CN1CCc2cccc3c2[C@H]1Cc1ccc(O)c(O)c1-3", "max response": 107}, {"smiles": "N#Cc1cccc(-c2nccc(NCc3cccs3)n2)c1", "max response": 10.9}, {"smiles": "COc1cc(C)c2c(=O)cc(-c3ccccc3)oc2c1", "max response": 38.7}, {"smiles": "COc1cc(C(O)C(=O)O)ccc1O", "note": "(centres undefined)", "max response": 59.2}, {"smiles": "COc1ccc(-c2nc3cnc(N(C)C)nc3n(-c3ccccc3)c2=O)cc1", "max response": -21.8}, {"smiles": "COCCn1c(=O)c(CCc2ccccc2)nc2cnc(Oc3ccccc3)nc21", "max response": 35.7}, {"smiles": "Cc1ccc2c(c1)C(=O)[C@@]1(O)CCN(c3ccccc3)C1=N2", "max response": 78}]}]}
